From the supplement of paper PMC11417369
The list shows a part of the results.

The sequences below were run on PfHDP1 homeodomain (GST-tagged) (assay: gcPBM binding intensity (ln(normalized median fluorescence intensity)); higher = stronger DNA binding).
Outline: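 After 1 h on an Agilent 4 × 180k array of primer-extended double-stranded 36-bp intergenic genomic probes and negative controls, bound GST-tagged P. falciparum DNA-binding domains were detected with Alexa488 anti-GST antibody and scanned at 488 nm. The domains had been expressed in E. coli, and binding took place in 1× PBS with 1% milk, 0.2 mg/ml BSA, 0.5% salmon testes DNA and 0.03% Triton X-100. Binding intensity is the highest Masliner-normalised natural-log median intensity across replicate spots of either probe orientation.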
For “GTAAAAAAATAGCACACACACAAAAACACGCACAAA [CACACA_site6723]”, the “gcPBM binding intensity (ln)” value was 8.31.
For “GGGACAGGACGAAAAAATAAATAAATAAATAAAAAA [CACACA_negctrl_site155]”, the “gcPBM binding intensity (ln)” value was 6.46.
In the case of “ACAAGATCTAGATACACACACATATCTCTCAATCTA [CACACA_site6453]”, the “gcPBM binding intensity (ln)” value is reported as 7.07.
In the case of “AATAAATAAATATATACACACATATCTGTCTACATA [CACACA_site5708]”, the “gcPBM binding intensity (ln)” value is reported as 6.5.
In the case of “CTTGTCATTGGGCACACACACATGTATAGGTTATTA [CACACA_site3058]”, the “gcPBM binding intensity (ln)” value is reported as 6.49.
“TGAACACCCACAAATACACACAAAAAAAATAAATAA [CACACA_site248]” was tested, and the “gcPBM binding intensity (ln)” value was 6.85.
“ATTTTTTTTCATATAACACACACACTAATATAATGT [CACACA_site9226]” was tested, and the “gcPBM binding intensity (ln)” value was 7.05.
With “GAGTAAACATATATATGTACATAAAGTTAACATTGC [XGTACX_site2225]” the “gcPBM binding intensity (ln)” value was 6.99.
With “TTTTTATTTATATATATATATATATATTATATATAA [CACACA_negctrl_site1654]” the “gcPBM binding intensity (ln)” value was 6.7.
In the case of “ATCTAAATAATATATATATATAATATTAATAATATA [CACACA_negctrl_site1620]”, the “gcPBM binding intensity (ln)” value is reported as 6.36.
With “ATATATTATATAATATGTACATAATAAAATTTAAAT [XGTACX_site1900]” the “gcPBM binding intensity (ln)” value was 6.79.
“AATCAAAAATCAAACGCATGTAGTATAATAGATAAG [TGCATGCA_site753]” was tested, and the “gcPBM binding intensity (ln)” value was 6.71.
“CAAATATAAATATATACATGCATCTATCTATATAAA [TGCATGCA_site369]” was tested, and the “gcPBM binding intensity (ln)” value was 6.12.
With “AAATTGTAGCACCAAGCATGCTAAAAGGACATATGA [TGCATGCA_site717]” the “gcPBM binding intensity (ln)” value was 6.45.
“AAATAAATACACATATGTACATATTTTATTTTATTT [XGTACX_site2357]” was tested, and the “gcPBM binding intensity (ln)” value was 6.83.
For “TAAAAAAAATACAAAAGTACACAAAATTATACGTTA [XGTACX_site4656]”, the “gcPBM binding intensity (ln)” value was 6.16.
In the case of “AATGGTATAATCAATACACACATAATATATATATTG [CACACA_site1658]”, the “gcPBM binding intensity (ln)” value is reported as 6.35.
“TTAAGATATGTATATCGTACATGACATTAAAAATTT [XGTACX_site3352]” was tested, and the “gcPBM binding intensity (ln)” value was 6.02.
For “ATTGGGTACAAATACACACACATATATATATTAATA [CACACA_site2376]”, the “gcPBM binding intensity (ln)” value was 6.8.
“TGTACCTTATTAATATATTTAACTCGCCTTATATAC [XGTACX_negctrl_site289]” was tested, and the “gcPBM binding intensity (ln)” value was 7.
With “TCGTAAACATATTGAAAAATATAAAAAGGGGTAATA [CACACA_negctrl_site619]” the “gcPBM binding intensity (ln)” value was 6.46.
For “TTGTTAAAAGTATCCATTCTTTATTACTTTTGTTTA [XGTACX_negctrl_site532]”, the “gcPBM binding intensity (ln)” value was 6.36.
With “TATTTATTGTGATACTTTTATTGTTTAATGATTAAA [CACACA_negctrl_site495]” the “gcPBM binding intensity (ln)” value was 6.29.
In the case of “AAAAAAAAAAAAAGGTGTACAAGTATAATTACATAA [XGTACX_site534]”, the “gcPBM binding intensity (ln)” value is reported as 6.31.
With “TAGTATAAAATTATGTGTACACAAATATAACTTTTC [XGTACX_site5971]” the “gcPBM binding intensity (ln)” value was 6.86.
“AAAAAAAAAAATATCACACACACATAAATATAAACC [CACACA_site2278]” was tested, and the “gcPBM binding intensity (ln)” value was 6.94.
For “AAATTATATCAATGTTGTACATATTATTTTTTTCTC [XGTACX_site5948]”, the “gcPBM binding intensity (ln)” value was 6.28.
With “AATTTCCTTTTTTAAAGTACACAAAAGTTCACTTTG [XGTACX_site4460]” the “gcPBM binding intensity (ln)” value was 6.39.
For “AAATTATATCATTTATTTTTTTATATTTTTTATATT [CACACA_negctrl_site685]”, the “gcPBM binding intensity (ln)” value was 6.03.
For “TATAATTTATTAAGGGGTACATATATTTCATGATAA [XGTACX_site5141]”, the “gcPBM binding intensity (ln)” value was 6.85.
With “AAGATTAAAAATTGCACACAAAAATATATTTTCTAT [CACACA_site1305]” the “gcPBM binding intensity (ln)” value was 9.78.
“TCACATCTTATATACTGTACATTTCGAATATAAATT [XGTACX_site2508]” was tested, and the “gcPBM binding intensity (ln)” value was 6.6.
“TTTCTTTTACATATTTGTACATATATAAATTTATAT [XGTACX_site1787]” was tested, and the “gcPBM binding intensity (ln)” value was 7.27.
With “TCTAACAACATGCGCACACACATGAATATTCATATT [CACACA_site1540]” the “gcPBM binding intensity (ln)” value was 8.26.
“ATTAGATATGTAAACTAAAATTATATTCATGATAAT [TGCATGCA_negctrl_site182]” was tested, and the “gcPBM binding intensity (ln)” value was 6.1.
In the case of “ATATTTTTATTTTCTTTACACACCACATAATTTTTT [CACACA_site4060]”, the “gcPBM binding intensity (ln)” value is reported as 7.05.
With “AAAAAAAAAAAAATATGTACTTATTTTTATGTTAAA [XGTACX_site8802]” the “gcPBM binding intensity (ln)” value was 6.2.
For “TTCTTTAATACTTATTGTACAATATAATAATCACAA [XGTACX_site6364]”, the “gcPBM binding intensity (ln)” value was 7.07.
With “TACTATATAAGTAAGGCATGCATGCCGATTTTTTTA [TGCATGCA_site100]” the “gcPBM binding intensity (ln)” value was 5.92.
With “TGAAACCGTTACATGTGTACATATGTTACACATAAT [XGTACX_site7250]” the “gcPBM binding intensity (ln)” value was 6.61.
“TACTTAAAATATTTAACAAATAAATAAATAAATAAA [XGTACX_negctrl_site523]” was tested, and the “gcPBM binding intensity (ln)” value was 6.19.
For “TAATTTAAACAAAAAAGTACAAATTTCTTTTTATTA [XGTACX_site5244]”, the “gcPBM binding intensity (ln)” value was 5.55.
With “TTTTAAAAAAAATATAAAAAAAGAGGAGGGATGGTA [GTGCAC_negctrl_site35]” the “gcPBM binding intensity (ln)” value was 6.61.
In the case of “AATTTTATTACTTTTACACACCTATATATTATTCAT [CACACA_site3273]”, the “gcPBM binding intensity (ln)” value is reported as 6.91.
In the case of “ATTATTTTATTATAGTGTACTTTTTTAATCAAAGGA [XGTACX_site8921]”, the “gcPBM binding intensity (ln)” value is reported as 6.23.
For “TACTCATAATATTGATAATTAAAAAGATAAACTATT [XGTACX_negctrl_site299]”, the “gcPBM binding intensity (ln)” value was 6.09.
For “ATTTTAATTACATATACACACAAAGGTTCATAACAA [CACACA_site9008]”, the “gcPBM binding intensity (ln)” value was 6.62.
TATGTTTTTACGTGTGTGCACTTTGTAGAGATAAGT was tested, and the “gcPBM binding intensity (ln)” value was 9.47.
With “GATAACATAATATGTTGTACATAAAAATTTTTATCA [XGTACX_site1969]” the “gcPBM binding intensity (ln)” value was 6.55.
For “ATCAATTTAATTTATTGTACTTGTTTGTTTTTTTAT [XGTACX_site7544]”, the “gcPBM binding intensity (ln)” value was 6.25.
With “ATAAAGATATGACACACACACATATTATAGATATAT [CACACA_site7434]” the “gcPBM binding intensity (ln)” value was 6.69.
With “AACTTATTTAAATTCACACATATATAAAATACTTAT [CACACA_site4394]” the “gcPBM binding intensity (ln)” value was 6.57.
For “ACATATGACTATAATACACACTTGTATTATTAATAT [CACACA_site6951]”, the “gcPBM binding intensity (ln)” value was 6.41.
“CATTATCATGTTTTTTGTACTCATAATAAAAAGCAG [XGTACX_site2056]” was tested, and the “gcPBM binding intensity (ln)” value was 6.49.
“CAAGGAACCGGACACACACACATAAATGTATTTATA [CACACA_site4574]” was tested, and the “gcPBM binding intensity (ln)” value was 6.45.
In the case of “AAAAATGAATTATTTTGTACATATATATATATATAT [XGTACX_site3410]”, the “gcPBM binding intensity (ln)” value is reported as 9.34.
